Read counts are not given, so values of variants with three or more changes are uncertain.
B1: CPEB3 Ribozyme (parent)
chain: UAACAGGGGGCCACAGCAGAAGCGUUCACGUCGCAGCCCCUGUCAGAUUCUGGUGAAUCUGCGAAUUCUGCUGUAUAUCUC

Variants of: B1
Experiment: self-cleavage, relative activity (ratio to wild type); higher = more cleavage; in vitro, sequencing
Procedure, shortened: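 Relative activity compares each variant's cleaved/total read fraction with that of the unmutated ribozyme. To get these fractions, barcoded CPEB3 ribozyme libraries from rounds of error-prone PCR were transcribed with T7 RNA polymerase for 5 hours at 37°C and then given 15 min of DNase I treatment before EDTA was added. The RNAs were reverse transcribed with template switching and sequenced on Illumina, and DNA sequencing linked barcodes to variants. A minimum of 5 reads applied, and three batches were averaged.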

Variant	self-cleavage
A2G A15G U31A U43A U54A	1
U1C G16U U60C U69A	0.07
U1C A65G U76A	0.32
U1C U31C U41C U54C U76C	0.71
U1C G8A C11A U31C U54C A77U	0.04
U1C C11G U31G U48A U49A U72G U80A	0.05
U1C G9A G42C U66C U69C A77G	0.15
A2G A45U U54C U69A	0.18
U1C A35U U43G U72C	0.06
A2G A21G C29U G55U U72C	0.2
U1C A21U U58C	0.22
U1C U31A U69C	0.16
U1C U41A U54C	0.4
A2G A5G U31G U69C A75G U80A	0.12
U1C U25C G30A U41A U51C	0.09
U1G A57G U80C	1.03
U1C U41C U48C A56G A75G	0.49
U1C G30U A35G	0.05
A2G A13G U49C U76A	0.28
A2G A3G A18C A28G U48A	0
A2C A5G A18G U25C A28U C62U	0.06
A2G A20U U31A U66A	0
A2G A15U A35U U72A	0.7
U1C A64G U67C U74A	0.2

Variant	self-cleavage
A2G C34G A35U	0.24
A2G A35G U48C U69A	0.68
U1C G42A U58C	0.21
U1C U31C A77U	0.9
U1C A21G U25C A35G U41G	0
U1C G8A A28G U80C	0.07
U1G A13C A18G U41A U67C U72C	0.18
A2G C29U A47G U74C	0.37
U1C G8A G22U U25A C50U	0.04
A2G C23G U60C U80A	0.26
U1C C38U U43C	0.25
A2C G6C A13G U25A U41C U66C	0.06
A2G A5U C14G A18U C40U A47U A65G	0.22
A2C A3G A35U U54C A56G U58C A64U	0.08
U1C G9U U26A U48A U54A U76C	0.03
U1C U58G U78A	0.14
U1C G10C G63A A64G	0.06
U1G A18U A64U	0.35
A2G A35U U49A A57G U60C U67C U78C	0.07
U1C U25A U41A A57G U60C A65G	0.04
U1C G9A A21G U25A A28U U43A U60A	0.04
U1C U58C A64C U66G	0.2
A2G A13C U54C A56U U80C	0.17
U1C G36C U58A C59G	0.06

Variant	self-cleavage
U1C G9U A35G C40U	0.07
U1C C40A U66C	0.3
U1C G53A A57G	1.07
U1C A45U U58C	0.2
U1C G30U A35G U48A A65G	0.14
A2G A5U G9U A35U C38U	0.07
A2C U31A C62G U72C U76G	0.16
U1C A28U U43C	0.26
A2C A20G A45G	0.53
A2G A5U G16U A57G U74A	0.09
U1C U69C U74A	0.35
A2G C4U U26C A64G U78C	0.32
U1C G9U C37G	0.05
U1C C32U G33A A45G U51A	0.1
U1C U31A A47U U66C	0.15
U1C C4U A64G A75G	0.79
U1C A45G A47U	0.47
U1C U51C U54C U80C	1.16
A2G A15G U48C	0.35
U1C C27A A28G C34A U76A	0.29
U1C A45C A75U	0.31
U1C U26C C50A U51A U58C U69A	0.04
A2G A18G U49C U60C	0.19
U1C A21G U72C U78C	0.29

Variant	self-cleavage
A2G C23A U41C	0.3
A2G C12U A75G	1.08
U1C U49C U51C U60A	0.11
A2G A5G G7U G10C	0.4
A2G A18U A45G	0.44
A2G C11G U76C	0.48
U1C A28U C37A U48C	0.05
A2G C11G U51A U69C	0.07
U1G U54C U78C	0.66
A2G A5G A20U A21G U43C	0.47
A2G C32A U74C	0.39
U1C U54C U80C	1.09
U1C U49C U54C U74C	0.3
A2G A20G A65G U67C U76C	0.11
A2G A5G U41C	0.08
A2G A5G A20U U48G U60A	0.17
A2C C11G G19A U26A A57U U72C U74C	0.04
U1C A21G U25C U31C U54C	0.33
U1C C4U A5G A13U C23A C39U U67C	0.07
U1G U43C U80C	0.51
U1C A18U U74C	0.68
U1C G7C A28G U49A U60G	0.3
U1C A20G U41C C71G U72A	0.22
U1C C14A A20U A75G	0.13

Variant	self-cleavage
U1C G6A C37U U66C	0.04
A2G A45G U48C U66A	0.09
A2G A5G U25C U43C U51A U78C	0.09
U1C A21G A35G U54A A75G C79U	1.17
U1C U26A A35G U54G U60C G73A	0.87
U1C G9A G24A A35G U43C C44A	0.17
A2G C11G A47G A64G U67C	0.11
A2G A18G U41C A57U U58C	0.27
U1C U26G G36A	0.06
A2G A15G U49A A56G U66C U72C	0.07
A2G A15G A21G C23U U41G U69A	0.11
U1C A20U U51C U54C	0.21
A2G A20G A28U A56G U80C	0.62
A2C A5C G8A G52A A56G U72C	0.08
A2G A20U U60A	0.49
A2G A3U A15G C27U U43C	0.58
A2G A15G U25A	0.72
U1C G7C U49A U69A	0.04
U1C U54C U76C	1
U1C U41C A57G U74A	1.08
U1C G10C U25C	0.3
A2G A21G U25C U80C	0.5
U1C G8C A35U U51A	0.08
U1C A20G U26A A35G	1.23

Variant	self-cleavage
A2G A45G U80C	0.33
U1C A20G C23G U54A C62G A65G	0.09
U1C G63A U69C U76A	0.41
U1C A21G U26C A47G U78C	0.3
U1C C12U U54A A64G	1.2
U1C A21G U51C U76A U80C	0.68
A2G C23U C44A U48C	0.35
A2G A5G C17U C40A G53A U60A A64G	0.13
U1C U43A G52U A57G	1.13
A2G A13U U31C U51C U58G G63A	0.18
U1C A35G U60C	0.95
U1C G24U A56G U60C U74C	0.16
U1C A21U A35G	0.95
A2C U41C U69C	0.42
A2G A57G U58A	0.55
U1C U43C G52U	0.79
U1C A21G A35U A45G A56G	0.31
U1C U25C A35G U43A U66A	0.37
A2G A5U G10A C12U	0.18
U1C G24A U26C U48C U58C C68A	0.04
A2G A15G U41C C81A	0.18
A2G A13U A28U G33U C39U A57G	0.05
A2G A5U A18G A45G C81A	0.68
U1C U26C U51C A77U	0.47

Variant	self-cleavage
A2G A47G U66C	0.44
U1C G8A A21G	0.32
U1C U51C A65G	0.29
U1C U26A U31C C39U A45U A57G A64G	0.05
U1G U26C A35U U60C U76A	0.21
A2G A56G U78C	0.28
U1C U25C U26A G30A A56G A64U C71U	0.03
U1C C12G A13G U69C	0.09
U1C U25G A28G	0.41
A2G A20G A28G U43C	0.44
U1C G10A U25C U31C A57G U78C	0.05
A2C A15G U48C	0.38
U1C G8C U26A	0.4
U1C A20U A21U U51A U60C	0.17
U1C G10A A18U	0.25
A2G C11U C12U U41C A56G U80C	0.32
U1C U49C U66C	0.06
A2G A45U U49A U74C	0.35
U1C A35U C44U U51C C62A A64G	0.12
U1C U31C U43C U48C U67A	0.06
U1C U43A A77U	1.24
U1C G10U A13G U25C	0.07
U1C C23U U60C U72C	0.23

Reference: the RNAGym collection of RNA variant scans (doi:10.1093/nar/gkz1192)
